In test [1] the test system is Human Coronavirus (COVID-19). Kind of test: microbe, parasite or virus in culture. Particulars: unidentified human coronavirus; for log reduction at 1 µM / log reduction at 10 µM: read-out: Log Difference.
The test system of test [2] is Human Coronavirus (COVID-19). Conditions: Table S4.

Where two headings read alike, the source gives them in different places.

Here are results for five molecules from PMC9572397, “Garcinia cambogia Phenolics as Potent Anti-COVID-19 Agents: Phytochemical Profiling, Biological Activities, and Molecular Docking” (Plants, 2022).

One may read the inhibition as the change of the read-out against control, counted positive when it falls. A higher inhibition goes with strong suppression. For orientation: EC50 means the concentration that produces a half-maximal response. A high value points to a need for much substance.

Turning to `O=c1c(O)c(-c2ccc(O)c(O)c2)oc2cc(O)cc(O)c12` [Compound 1, quercetin], in test [1] (Table S3), at 1 µM the inhibition was 63.7% and at 10 µM the inhibition was 87.9%. In addition, in test [1], the log reduction at 1 µM stood at 0.441 and the log reduction at 10 µM was 0.918.

As for `O=c1cc(-c2ccc(O)c(-c3c(O)cc(O)c4c(=O)cc(-c5ccc(O)cc5)oc34)c2)oc2cc(O)cc(O)c12` [Compound 2, amentoflavone], in test [1] (Table S3), 1 µM produced 50.4% inhibition and the inhibition at 10 µM was 85.1%. In test [1], the log reduction at 1 µM stood at 0.305 and the log reduction at 10 µM was found to be 0.827.

Consider `C[C@@H]1O[C@@H](OC[C@H]2O[C@@H](Oc3c(-c4ccc(O)c(O)c4)oc4cc(O)cc(O)c4c3=O)[C@H](O)[C@@H](O)[C@@H]2O)[C@H](O)[C@H](O)[C@H]1O` [Compound 4, rutin], for which, in test [1] (Table S3), the inhibition at 1 µM is 23.7% and the inhibition at 10 µM was determined as 65.5%. Moreover, in test [1], the log reduction at 1 µM was 0.118 and the log reduction at 10 µM is 0.462.

For the molecule `O=C(O)c1cc(O)c(O)c(O)c1` [Compound 8, gallic acid], in test [1] (Table S3), the inhibition at 1 µM came out at 61.1% and the inhibition at 10 µM is 92%. Also, in test [1], the log reduction at 1 µM was 0.411 and the log reduction at 10 µM is 1.1.

Regarding `CCC(CC)COC(=O)[C@H](C)N[P@](=O)(OC[C@H]1O[C@@](C#N)(c2ccc3c(N)ncnn23)[C@H](O)[C@@H]1O)Oc1ccccc1` [Remdesivir, reference compound], the inhibition at 1 µM in test [1] (Table S3) and in test [1] (Table S4) was 95.4% each time. In addition, the figures for the inhibition at 10 µM in test [1] (Table S3) and in test [1] (Table S4) were 98.7% and 98.1%, respectively. The molecule also gave an inhibition at 0.001 µM in test [1] (Table S4, 0.001 µM) of 17.7%. The molecule also yielded an inhibition at 0.01 µM in test [1] (Table S4, 0.01 µM) of 55.3%. The same molecule gave an inhibition at 0.1 µM in test [1] (Table S4, 0.1 µM) of 92.7%. Moreover, the EC50 came out at 0.00818 µM in test [1] (Table S4, Conc. column in µM) and 0.0081 µM in test [1] (serial concentration 10, 1, 0.1, 0.01, 0.001 μM). The log reduction at 1 µM in test [1] was found to be 1.34. For the same molecule, the log reduction at 10 µM in test [1] turned out to be 1.88. The Log diff in test [2] (0.001 µM) is listed as -0.08451; in test [2] (0.01 µM), -0.3501; in test [2] (0.1 µM) it was -1.135; in test [2] (1 µM) it was -1.337; in test [2] (10 µM), -1.714.
